# Results reported in patent publication US20230242671A1.
# Molecular target: CaptureSelect Kappa XL ligand
# Assay: CaptureSelect Kappa XL affinity column after Protein A
binder,measurement,value
"cMet mAb (DKK on both LCs) (antibody, human IgG1) heavy: EVQLVESGGGLVQPGGSLRLSCAASGYTFTSYWLHWVRKAPGKGLEWVGMIDPSNSDTRFNPEFKDRFTISADTSKNTAYLQMNSLRAEDTAVYYCATYRSYVTPLDYWGQGTLVTVSSASTKGPSVFPLAPSSKSTSGGTAALGCLVKDYFPEPVTVSWNSGALTSGVATGPAVLQSSGLYSLSSVVTVPSSSLGTQTYICNVNHKPSNTKVDKKV[sequence of human IgG1 Fc with changes omitted] light: RIQMTQSPSSLSASVGDRVTITCKSSQSLLYTSSQKNYLAWYQDKPGKAPKLLIYWASTRESGVPSRFSGSGSGTDFTLTISSLQPEDFATYYCQQYYAYPWTFGQGTKVEIKRTDAAPSVFIFPPSDEQLKSGTASVVCYLNNFYPRKAKVQWKVDNALQSGNSQESVTEQDSKDSTYSLWSTLTLSKADYEKHKVYACEVTHKGLSSPVTKSFNRGEC",% Flow Through (FT),100%
